# Reference: the supplement of paper PMC10126150
# Sequences with one replicate were seen in a single cluster, so their values are uncertain.
# System: ATP
# Assay: switch fluorescence ratio, 500 uM ATP over buffer (Cy3 cluster intensity, sum of 5 cycles each) (fold (ratio)); higher = stronger signal-on switching upon ATP binding; sequences stand for … in TCGTCGGCAGCGTCAGATGTGTATAAGAGACAGTTTTTTTTTTTTTTTTTTTTTTTTT…TC
# Settings: aptamer strand: ATP DNA aptamer (quencher-CACCTGGGGGAGTATTGCGGAGGAAGG + anchor), 100 nM annealed; ATP concentration: 500 uM; one replicate
# Method in brief: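 Between each of five buffer/ATP cycles, the flow-cell was stripped with NaOH and re-annealed. Each cycle imaged Cy3-labelled switching-strand clusters, annealed to 100 nM quencher-labelled ATP aptamer on a modified Illumina MiSeq flow-cell, first in selection buffer and then after 15 min with 500 uM ATP at 22 °C. The fluorescence ratio is summed target-cycle over summed buffer-cycle Cy3 intensity per cluster, averaged per switch-domain sequence, with clusters outside 100-1000 RFU excluded.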
# 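Also: ATP exposure 15 min at 22 °C before imaging.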
row,Sequence,switch fluorescence ratio
1,CTTCCTGTGT,1.13
2,GGGAGAGCT,0.992
3,ACTACCGGTT,1.05
4,GCTTCTGGAC,1.05
5,TTGCCTGTGC,1.04
6,TGGATACGAG,1.03
7,GGTGGCCGAA,0.966
8,TATTATACCG,1
9,AGCGACGATG,1.04
10,TGGACTAGGT,0.978
11,AGGGCAGGCG,0.839
12,GGGGGACCA,1
13,CTATCTGACT,0.999
14,GAGAGCGGGA,0.939
15,TTGTAAGTGT,0.957
16,GGTGAGGATA,0.929
17,GAACCGGGGA,0.95
18,CATCAGCGAC,5.98
19,TGGATGGCAT,1.02
20,GCACTGGCGA,1.08
21,GCATACGTCA,1.18
22,ATAAATAGGC,1.07
23,TTCAGAATAG,1.25

row,Sequence,switch fluorescence ratio
1,TCAAAGCCTG,0.955
2,ACGCGTTCTG,1.03
3,GCAAGTCGAT,1.05
4,CAGTAACCGC,1.06
5,CCTTGTACG,1.03
6,GTGTTCGTG,1.01
7,GTAATTCCAT,0.999
8,TGTTGGTTCT,1
9,TCTGTAACTT,1.02
10,TGGCTTCTGA,1.02
11,TAAATAGATT,0.98
12,CATGTTCAGG,1
13,GGTCTGCG,1.01
14,GGTCTCAAAG,1.02
15,ATAGGAAGGC,1.02
16,TAATTGAAAT,1.03
17,CGTATAGAG,0.969
18,ATCTGGAGTC,1.01
19,GTCTTTAAAG,1.01
20,ACTATACTTT,1.25
21,GGCCATAGGA,0.994
22,AAATGCAGAA,1.02
23,TAGTATGGCT,0.973

row,Sequence,switch fluorescence ratio
1,CGCGGCAGGT,1.05
2,AGTTTCAGCA,1
3,TATACTTAGC,1.01
4,GAGCCTTTAC,1.23
5,TCAGCCTCTT,0.97
6,GTTTTCTTTG,0.978
7,TGCGGAGGAA,1.07
8,TGGGGAGGA,1.03
9,TGGAGGAGTA,0.978
10,ACAAAATTTG,0.983
11,TTGTTTTGCG,1.01
12,TCGGCGGGAA,0.997
13,AATCAATGAG,1.04
14,GTGAAGTCAG,0.991
15,GGAGCGACTC,1.48
16,TACCTTTCGA,1.79
17,ATCCATTGGT,0.977
18,TTTGGCCATC,0.998
19,CAACCAAAGG,0.998
20,AATTACTCTT,1.03
21,GATAACAAAG,0.981
22,TTGGTGGGAG,0.95
23,CTGAGGGAAG,1.03

row,Sequence,switch fluorescence ratio
1,AAGTGTGGCC,0.984
2,TCCCCTAGGT,3.55
3,GGGGA,1.03
4,GTGGGTTCGT,1.05
5,CGTCGGACCG,1.02
6,GGAAGGCTAT,0.986
7,TAACAGGTAC,1.07
8,AATTTGCTGG,1.03
9,GACCCCCGAG,1.03
10,AAATAAGTAC,1.22
11,TGGGTACCGA,0.973
12,GAGGGTTTAG,1
13,CCGCGCGAGG,1.12
14,AAAGCTCTG,0.977
15,GGGGCTCGTT,0.976
16,TCGAAAGATC,1.04
17,GCGACGAAAT,2.32
18,AGGTATGAAG,0.993
19,ACCAGGGGTC,1.25
20,CTTGACGGAA,1.37
21,GACTTCGATG,0.96
22,GACGTGCGAG,0.966
23,TGCTGAGGTG,1.02

row,Sequence,switch fluorescence ratio
1,TATCGATCTA,0.986
2,TATCCGTC,0.951
3,ATTGAACTTA,0.981
4,CTAATCGTAC,1.13
5,AATAATAGTC,0.968
6,TACAAGCTGC,1.01
7,TAGAGAATCC,1.01
8,AGAGTGTCTT,0.995
9,TATCCGCGGC,1.23
10,TAGTCTAGAT,1.01
11,ATCCCAGAAG,1.04
12,TTGTTTAGTT,1.01
13,ATTCATGTT,0.942
14,TACTAGGCTT,1.02
15,CCAATGGCTA,1.13
16,GGGTTTATTA,0.941
17,ACAGAAGTT,0.985
18,ATCTGTGCCG,0.952
19,GAACCGGGCG,1.06
20,TGACATCGAT,0.99
21,ATAACGAAGC,1.03
22,TGGAGGGACA,1.01
23,GGGACTGGCC,0.928

row,Sequence,switch fluorescence ratio
1,CGAGTTTATC,0.929
2,GGCCAAATT,0.979
3,GGTGCAATTA,1.17
4,CCCGTGTGCT,1.06
5,ACGATAAAGA,1.04
6,CCGCAACGTT,1.72
7,TCGCGTTCTA,0.963
8,TGTTTGTCGT,0.987
9,CTGGTTATCT,0.978
10,TATTCAGGT,1.02
11,TAGGCAACAT,1.02
12,CCGCCCACGA,4.83
13,GCAGTTCGCT,0.976
14,AATTCAAATA,1.03
15,GATAAATCCG,0.997
16,TTACATGTTA,1.05
17,CAGGGTTC,0.945
18,TGAGTTATGA,0.98
19,GCGGGCTTC,1.03
20,AACGCCGGGC,1.04
21,TAACCTGACC,2.44
22,GAAGTTCGCG,1.02
23,GATCTCACGG,0.989

row,Sequence,switch fluorescence ratio
1,TAATTAGGTC,0.994
2,CTGAACGTGT,1.01
3,TATTGACAAT,1.04
4,GTAGCCGCCC,1.1
5,GGGTGTTGCG,0.981
6,CAAGGTAGAG,0.945
7,CGTAAGGCGA,1.04
8,ACGGCTTGGT,0.973
9,TAGGCTCCTG,1.01
10,AATATCCTAC,1.01
11,TCGACATTGT,0.99
12,CCATGCTCTA,1.04
13,ATACAGTTTG,1.06
14,TATATCCCGC,1.03
15,ACTGGGATG,0.955
16,AGTTCCCGCA,1.83
17,TCTTTTTGCG,1.03
18,AAGCTAAAGC,0.96
19,ACACATTACG,1.48
20,TAGACGTAAT,1.22
